Reference: PubChem BioAssay AID493131 (Broad Institute, 2011)
Screen size: about 340,000 compounds; about 3,300 (0.97%) were called active. Inconclusive results, whose numbers are uncertain, are shown with a selection of clear calls.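 The calls were made as follows: active = mean activation above about 17%, with every replicate also reaching it (limit read from the data, passing the limit was not always enough); inconclusive = only one of the two conditions met; inactive = the rest.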

target: Protein FosB (Mus musculus) (UniProt P13346); experiment: enhancers of mouse delta FosB DNA binding – biochemical, fluorescence polarization, TAMRA-CDK5 oligo, single point, primary screen (AID 493131); conditions: purified delta FosB, at 25 µM, hits give high values, percent of positive-control signal above neutral wells;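 also: fluorescence polarization rise as delta FosB binds a TAMRA Cdk5 AP-1 oligo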
UniProt P13346, sequence (P13346 whole entry, looked up): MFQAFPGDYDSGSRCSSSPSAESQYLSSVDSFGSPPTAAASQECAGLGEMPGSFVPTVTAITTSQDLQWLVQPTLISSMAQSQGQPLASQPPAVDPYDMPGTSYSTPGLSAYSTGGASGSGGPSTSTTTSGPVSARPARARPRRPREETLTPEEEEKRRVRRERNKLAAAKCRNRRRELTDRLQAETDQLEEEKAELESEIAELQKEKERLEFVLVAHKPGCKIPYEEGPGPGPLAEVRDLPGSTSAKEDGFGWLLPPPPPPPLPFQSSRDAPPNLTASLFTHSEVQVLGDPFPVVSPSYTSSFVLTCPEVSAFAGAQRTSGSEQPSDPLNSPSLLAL

Row | Compound | activation
1 | O=c1[nH]c(/C=C/c2ccc(OC(F)F)cc2)nc2c1cnn2-c1ccccc1 | active: 65.3%
2 | Cc1ccc(Cn2nnc3c(=O)[nH]c(C4CCCN(S(=O)(=O)c5ccc(F)cc5)C4)nc32)cc1 (centres undefined) | inconclusive: 18.7%
3 | COc1cc(Nc2c3ccccc3nc3ccccc23)cc(OC)c1OC | active: 43.9%
4 | CCN1CCN(c2ccc(S(=O)(=O)N3CCCCC3)cc2NC(=O)CC(C)c2ccccc2)CC1 (centres undefined) | inconclusive: 16.6%
5 | CCCOc1ccc(N2C(=O)CC(NNC(=O)c3ccc(COc4ccccc4)o3)C2=O)cc1 (centres undefined) | inconclusive: 18.7%
6 | CCCC1=Nc2cc(C(=O)NCCN3CCCC3)ccc2Sc2ccccc21 | inconclusive: 18.2%
7 | O=C(O)CNC(=S)NCc1ccccc1 | inactive: 6.28%
8 | COc1cccc(/C=N/NC(=O)c2[nH]nc3c2CCc2ccccc2-3)c1O | active: 76.1%
9 | CSc1cccc(NC(=O)NCc2cccc(CNC(=O)Nc3cccc(SC)c3)c2)c1 | active: 25.4%
10 | COc1ccc(-c2cc(=O)c3c(O)cc(OC4OC(COC5OC(C)C(O)C(O)C5O)C(O)C(O)C4O)cc3o2)cc1O (centres undefined) | inconclusive: 37.1%
11 | COc1ccc(S(=O)(=O)N2CCC3(CC2)CC(=O)c2ccccc2O3)cc1C | inactive: 5.16%
12 | O=c1c2ccccc2oc2nc(C3CCCCC3)n(Cc3ccco3)c(=O)c12 | active: 34%
13 | CN(C)CCNc1ncnc2c1sc1nc(N3CCCC3)c3c(c12)CC(C)(C)OC3 | inconclusive: 19%
14 | Cc1ccc2[nH]c(C)c(CCNC(=O)c3cc4cc([N+](=O)[O-])ccc4oc3=O)c2c1 | inactive: -3.06%
15 | CS(=O)(=O)Nc1cccc(C(=O)OCCCOc2ccc(F)cc2)c1 | inactive: -16.2%
16 | CC(=O)c1cccc(Nc2c3c(nc4ccccc24)CCC3)c1 | inactive: -9.22%
17 | CCN(CC)CCN(Cc1cc2cc3c(cc2[nH]c1=O)OCO3)C(=S)NCC(C)C | inconclusive: 17.5%
18 | CC(=O)Nc1ccc(Sc2ncccc2C(=O)Nc2ccc(OC(F)(F)F)cc2)cn1 | active: 51.3%
19 | O=C(/C=C/c1ccco1)Nc1nnc(-c2ccco2)s1 | inconclusive: 17.2%
20 | CCCCCOC(=O)CSc1nc2c(c(=O)[nH]c(=O)n2C)n1CCc1ccccc1 | inconclusive: 28.1%
21 | COc1ccc(CNCCC(c2ccccc2)c2ccc(OC(C)C)cc2)cc1OC (centres undefined) | inconclusive: 17.6%

Row | Compound | activation
22 | Cc1ccc(NC(=S)NC(=O)c2cccs2)cc1F | inconclusive: 17.6%
23 | COc1cccc(CNCC(O)(c2ccc(Cl)cc2)c2ccc(Cl)cc2)c1 | inconclusive: 18.5%
24 | O=C(CSc1nc(-c2ccccc2)cs1)Nc1nccs1 | inconclusive: 17.5%
25 | CCN(CC)S(=O)(=O)c1ccc2[nH]cc(C(=O)NCCN3CCCCCC3)c(=O)c2c1 | inactive: -14.3%
26 | Cc1noc2ncnc(Oc3cc(Cl)ccc3Cl)c12 | inactive: 0.797%
27 | CCOc1ccc(Nc2nc(NCC3CCCO3)c3ccccc3n2)cc1 (centres undefined) | inconclusive: 19.5%
28 | CC(C)OCC(O)CN1CCN(CCN2C(=O)c3cccc4cccc(c34)C2=O)CC1 (centres undefined) | inconclusive: 22.8%
29 | Cc1ccc(-c2noc(C3CCCCC3)n2)cc1 | inactive: -0.935%
30 | COc1cc2c(C(=O)N3CCN(C)CC3)c(C)n(-c3ccccc3)c2cc1Br | inactive: 0.794%
31 | Cc1ccc(NC(=O)CSc2nc3ncc(Br)cc3[nH]2)cc1C | inconclusive: 17.9%
32 | CC1Nc2ncnc(N3CCc4ccccc4C3)c2N(Cc2ccc(Cl)cc2)C1=O (centres undefined) | inconclusive: 24.3%
33 | O=C(COC(=O)c1cc2ccccc2oc1=O)Nc1cccc(Br)c1 | inconclusive: 22.8%
34 | COc1ccc(C(=O)Nc2ccc(C)c(S(=O)(=O)N3CCCCCC3)c2)cc1 | inactive: -4.81%
35 | O=C(Cn1c(=O)n(-c2ccccc2)c(=O)c2oc3ccccc3c21)Nc1ccccc1 | inconclusive: 16.7%
36 | COc1cc(/C=C2\SC(=S)N(NC(=O)c3ccc(O)c(OC)c3)C2=O)ccc1O | inconclusive: 17.1%
37 | O=S(=O)(NC1CC1)c1ccccc1 | inactive: 0.376%
38 | O=C(COC(=O)c1cc(=O)[nH]c2ccccc12)Nc1nccs1 | inconclusive: 17.9%
39 | CC(=O)c1cc2c(cc1N/C(=N/S(=O)(=O)c1ccccc1)c1ccc(Cl)cc1)OCO2 | inconclusive: 26.9%
40 | COc1ccccc1Nc1nc(N)nc(CSc2nnc(C)s2)n1 | inconclusive: 16.5%
41 | Cc1ccc(NC(=O)c2cc(=O)[nH]c3ccccc23)cc1C | inconclusive: 17.5%
42 | Cc1cccc(N(CC(N)=O)C2SC(=O)N(c3ccccc3)C2=O)c1 (centres undefined) | inconclusive: 20.5%

Row | Compound | activation
43 | CCOc1ccc2nc(NC(=O)CSc3nc4cccnc4n3C)sc2c1 | inconclusive: 16.7%
44 | COc1cccc(-c2csc(N3CCN(C(=S)Nc4cccc(C)c4)CC3)n2)c1 | inactive: -15%
45 | COc1ccc(C)cc1NC(=O)CNC(=O)Cn1ccc2ccccc2c1=O | active: 47.1%
46 | COc1ccc(NC(=O)NNC(=O)COc2ccc3cc(Br)ccc3c2)c(OC)c1 | active: 82.2%
47 | NC(=O)NC(=O)CSc1nc2cc([N+](=O)[O-])ccc2n1-c1cccc(C(F)(F)F)c1 | active: 20.9%
48 | Nc1nc(Cl)cc(N2CCC(c3cc(-c4ccc(Cl)cc4)n[nH]3)CC2)n1 | inactive: -13.9%
49 | O=S(=O)(N/N=C\c1ccc(-c2ccccc2Cl)o1)c1ccccc1 | inactive: -10.4%
50 | Cc1ccc(S(=O)(=O)N(CC(=O)N/N=C/c2cccc(C)c2)c2cccc3cccnc23)cc1 | inconclusive: 20.2%
51 | COc1ccc(C(=O)Nn2c(SCC(=O)NCc3ccco3)nc3ccccc3c2=O)cc1 | inconclusive: 16.7%
52 | COc1cccc(N=Nc2c(N)[nH]n3c(=O)cc(-c4ccccc4)nc23)c1 | inactive: -10.5%
53 | CC(=O)NCCNC(=O)C1CCC(CNc2nc(=S)[nH]c3ccccc23)CC1 (centres undefined) | inactive: -0.702%
54 | O=C(CSc1nnc(Cn2nnc(-c3ccccc3)n2)n1-c1ccccc1)Nc1ccc(F)cc1 | inactive: -11.7%
55 | Cc1ccsc1C(=O)NNC(=O)Nc1ccc(Cl)c(Cl)c1 | active: 24.7%
56 | O=C1c2cccc(NCCCNCCO)c2C(=O)c2cccc(NCCCNCCO)c21 | inconclusive: 16.9%
57 | Cc1ccc(NC(=O)NNC(=O)COc2ccc([N+](=O)[O-])cc2)cc1C | active: 31.9%
58 | O=C(Nc1ccc(F)cc1F)c1ccc2c(c1)[nH]c(=O)n2Cc1ccc(F)cc1 | inconclusive: 16.6%
59 | OC(CN1CC=C(/C=C/c2ccc(Br)cc2)CC1)c1ccccc1 (centres undefined) | inactive: 4.53%
60 | COc1ccccc1Nc1nc(NCCCN(C)C)nc(N)c1[N+](=O)[O-] | inconclusive: 28%
61 | Cc1ccc(C)c(OCC(=O)N/N=C/c2c(C)nn(-c3ccccc3)c2Cl)c1C | inconclusive: 47.1%
62 | COc1cccc(-c2nnc(SC(C(=O)c3c[nH]c4ccccc34)c3ccccc3)n2C)c1 (centres undefined) | inconclusive: 19.5%
63 | COc1cc(-c2cc(C(=O)Nc3nc4ccccc4s3)c3ccccc3n2)cc(OC)c1OC | inconclusive: 17.8%

Row | Compound | activation
64 | Oc1ccccc1Nc1nc(NCc2ccco2)c2ccccc2n1 | inconclusive: 19.9%
65 | CN(C)CCN(C(=O)c1ccc2ccccc2c1)c1nc2c(F)cc(F)cc2s1 | active: 35.7%
66 | CN(C)CCN(C(=O)c1ccc(C(=O)c2ccccc2)cc1)c1nc2cc3c(cc2s1)OCO3 | inconclusive: 16.7%
67 | O=C(CCn1c(=S)oc2ccccc21)Nc1ccccc1Br | inconclusive: 26.6%
68 | O=C(Nc1ccc(-c2nc3ncccc3o2)cc1)c1ccc(Br)o1 | inconclusive: 21.4%
69 | CC(C)C1Nc2ccc(C(=O)O)cc2C2C=CCC21 (centres undefined) | inactive: -15.2%
70 | COc1ccccc1C(=O)NNC(=O)CCN1C(=O)/C(=C\c2ccccc2)SC1=S | inconclusive: 16.9%
71 | CN(c1ccccc1)S(=O)(=O)c1cccc(NC(=O)Nc2ccc(Cl)cc2C#N)c1 | inactive: -1.11%
72 | O=C1NCN(c2ccccc2)C12CCN(CCCC(c1ccc(F)cc1)c1ccc(F)cc1)CC2 | inconclusive: 21.9%
73 | CN(C)CCCN(C(=O)c1ccc(C(=O)c2ccccc2)cc1)c1nc2cc3c(cc2s1)OCCO3 | inconclusive: 18.9%
74 | CCCCOc1ccc(C(=O)N/N=C/c2cn[nH]c2-c2ccc(OC)c(OC)c2)cc1 | inconclusive: 17%
75 | O=C(NNC(=O)c1ccc(-c2ccccc2)cc1)Nc1ccc(F)cc1F | active: 30%
76 | COc1ccc(N(CC(=O)N2CCN(c3ccc(Cl)cc3)CC2)S(=O)(=O)c2c(C)n[nH]c2C)cc1 | active: 77.2%
77 | Cc1ccc(C)c(NC(=S)NC(NC(=O)/C=C/c2ccccc2)C(Cl)(Cl)Cl)c1 (centres undefined) | inconclusive: 16.3%
78 | COc1cccc(-c2sc3ccccc3c2-c2ccc(OCCN3CCCCC3)cc2)c1 | active: 34.5%
79 | CCOC(=O)c1cnc(SCc2nc(N)nc(Nc3ccc(F)cc3)n2)nc1N | inconclusive: 21.1%
80 | O=C(Cc1ccc(NC(=O)C2CCCN(C(=O)C3CCCC3)C2)cc1)Nc1cccc(C(=O)N2CCCC2)c1 (centres undefined) | inactive: -5.82%
81 | CC(C)C[C@@H](CN1CCCC1CN1C(=S)NC[C@@H]1Cc1ccc(O)cc1)N1C[C@H](Cc2ccc(O)cc2)N(CCc2ccccc2)C1=S (some centres undefined) | inconclusive: 34.7%
82 | COC(=O)c1ccccc1NC(=O)c1cc(-c2ccc(O)cc2)on1 | inconclusive: 17.5%
83 | COC(=O)c1ccc(CNC(=O)c2ccc(S(=O)(=O)N3CCCC(C)C3)cc2)cc1 (centres undefined) | inconclusive: 20.7%
84 | O=C1C=C(Nc2ccccc2)c2ccccc2C1=O | inactive: -5.36%
